Assay results: the BET-seq Pho4 binding data (Le et al. 2018)
The list shows a part of the results. The energies were worked out here from pooled read counts, against the library average; single values are noisy.

The sequences below were run against T1, Pho4 (S. cerevisiae) (UniProt P07270) (assay: relative binding free energy (BET-seq); higher = weaker binding). Conditions: reference: library average.
T1 sequence: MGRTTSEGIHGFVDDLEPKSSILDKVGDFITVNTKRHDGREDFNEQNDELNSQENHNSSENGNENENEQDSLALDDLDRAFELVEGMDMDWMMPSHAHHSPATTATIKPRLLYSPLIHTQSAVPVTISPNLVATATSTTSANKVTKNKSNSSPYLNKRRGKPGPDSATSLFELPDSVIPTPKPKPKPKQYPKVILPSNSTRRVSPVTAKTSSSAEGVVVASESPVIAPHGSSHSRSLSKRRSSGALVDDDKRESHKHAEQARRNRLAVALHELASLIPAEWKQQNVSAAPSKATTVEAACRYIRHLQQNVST
GTATGCACGTGGTTTC was tested, and the “relative binding free energy” value was 0.13 kcal/mol.
With GACGACACGTGGTTGT the “relative binding free energy” value was 0.13 kcal/mol.
For GTTCGCACGTGGTGAG, the “relative binding free energy” value was -0.02 kcal/mol.
With TGGGTCACGTGAAGAG the “relative binding free energy” value was 0.28 kcal/mol.
With TGTGCCACGTGCATGG the “relative binding free energy” value was -0.22 kcal/mol.
For TAGAGCACGTGGTAAT, the “relative binding free energy” value was -0.17 kcal/mol.
With CTGGTCACGTGACGTT the “relative binding free energy” value was 0.3 kcal/mol.
In the case of AAGGTCACGTGGTAGG, the “relative binding free energy” value is reported as 0.07 kcal/mol.
For CTGTGCACGTGCGTTT, the “relative binding free energy” value was -0.08 kcal/mol.
GGGGACACGTGTAAAT was tested, and the “relative binding free energy” value was 0.21 kcal/mol.
In the case of GCTTGCACGTGGGTCG, the “relative binding free energy” value is reported as -0.14 kcal/mol.
For CTTATCACGTGGTGGT, the “relative binding free energy” value was 0.07 kcal/mol.
TTACGCACGTGGCGGT was tested, and the “relative binding free energy” value was -0.11 kcal/mol.
For AGTTCCACGTGTTTAT, the “relative binding free energy” value was 0.01 kcal/mol.
With AGGGGCACGTGCTGTG the “relative binding free energy” value was -0.21 kcal/mol.
For ATTTGCACGTGTACTT, the “relative binding free energy” value was 0.13 kcal/mol.
In the case of ATATGCACGTGGAGTA, the “relative binding free energy” value is reported as -0.18 kcal/mol.
TCATACACGTGTTTTT was tested, and the “relative binding free energy” value was 0.16 kcal/mol.
TTAGGCACGTGGAAAG was tested, and the “relative binding free energy” value was -0.04 kcal/mol.
For GGGTTCACGTGAGTTT, the “relative binding free energy” value was 0.46 kcal/mol.
In the case of CGATTCACGTGTGGTT, the “relative binding free energy” value is reported as 0.38 kcal/mol.
For TTTGCCACGTGTGTGA, the “relative binding free energy” value was -0.16 kcal/mol.
In the case of TTGAACACGTGTCGTA, the “relative binding free energy” value is reported as 0.1 kcal/mol.
With GTTTTCACGTGTCAAG the “relative binding free energy” value was 0.31 kcal/mol.
GGAGGCACGTGTGAAT was tested, and the “relative binding free energy” value was 0 kcal/mol.
For TGGGTCACGTGTATTG, the “relative binding free energy” value was 0.1 kcal/mol.
In the case of GGAGACACGTGGAATG, the “relative binding free energy” value is reported as 0.12 kcal/mol.
CTTGGCACGTGATGGG was tested, and the “relative binding free energy” value was -0.04 kcal/mol.
In the case of CAGGTCACGTGGACTG, the “relative binding free energy” value is reported as 0.16 kcal/mol.
CTGAGCACGTGGGATT was tested, and the “relative binding free energy” value was -0.02 kcal/mol.
With GGTGGCACGTGCATAG the “relative binding free energy” value was -0.26 kcal/mol.
With GTGGACACGTGCGATG the “relative binding free energy” value was 0.02 kcal/mol.
GTGTACACGTGGCTAG was tested, and the “relative binding free energy” value was -0.04 kcal/mol.
ATGTGCACGTGGGCTA was tested, and the “relative binding free energy” value was -0.1 kcal/mol.
In the case of ATGTTCACGTGTCTGT, the “relative binding free energy” value is reported as 0.23 kcal/mol.
With TGTTGCACGTGTTGTC the “relative binding free energy” value was 0.07 kcal/mol.
In the case of ATTGGCACGTGTGTAC, the “relative binding free energy” value is reported as -0.1 kcal/mol.
For GAATTCACGTGGTGGA, the “relative binding free energy” value was 0.21 kcal/mol.
TTTTGCACGTGGGGTT was tested, and the “relative binding free energy” value was -0.09 kcal/mol.
In the case of GGATACACGTGGTGTA, the “relative binding free energy” value is reported as -0.17 kcal/mol.
In the case of AAATCCACGTGGTGGG, the “relative binding free energy” value is reported as -0.07 kcal/mol.
With AGGATCACGTGGGGGA the “relative binding free energy” value was -0.07 kcal/mol.
In the case of TATTTCACGTGAGGTG, the “relative binding free energy” value is reported as 0.39 kcal/mol.
In the case of GTTTGCACGTGCTATT, the “relative binding free energy” value is reported as 0.08 kcal/mol.
With TATTTCACGTGGGCTG the “relative binding free energy” value was 0.17 kcal/mol.
TATGGCACGTGTAGAC was tested, and the “relative binding free energy” value was 0.09 kcal/mol.
In the case of GCTGTCACGTGTTATT, the “relative binding free energy” value is reported as 0.26 kcal/mol.
CATTGCACGTGGGTTG was tested, and the “relative binding free energy” value was -0.14 kcal/mol.
For TTATACACGTGTTCTT, the “relative binding free energy” value was 0.06 kcal/mol.
ATGGGCACGTGAGCCG was tested, and the “relative binding free energy” value was 0.01 kcal/mol.
In the case of GAGTTCACGTGGCTGA, the “relative binding free energy” value is reported as 0.44 kcal/mol.
In the case of GTGGGCACGTGTATTT, the “relative binding free energy” value is reported as 0.07 kcal/mol.
TTAATCACGTGTTGAG was tested, and the “relative binding free energy” value was 0.06 kcal/mol.
In the case of GGTATCACGTGGGAGT, the “relative binding free energy” value is reported as 0.02 kcal/mol.
With AGAATCACGTGGGTAT the “relative binding free energy” value was 0.06 kcal/mol.
For TTTAACACGTGGCAGG, the “relative binding free energy” value was -0.2 kcal/mol.
For TGTTACACGTGTATGT, the “relative binding free energy” value was 0.08 kcal/mol.
TCTGACACGTGTGGTA was tested, and the “relative binding free energy” value was 0.21 kcal/mol.
In the case of GGTGACACGTGTAGTA, the “relative binding free energy” value is reported as -0.09 kcal/mol.
With GTTTCCACGTGGATGT the “relative binding free energy” value was 0.1 kcal/mol.
For ATTTCCACGTGGGGTG, the “relative binding free energy” value was -0.16 kcal/mol.
ATTATCACGTGTTTAT was tested, and the “relative binding free energy” value was 0.19 kcal/mol.
AATAGCACGTGGTATG was tested, and the “relative binding free energy” value was -0.15 kcal/mol.
ATCGTCACGTGGATGG was tested, and the “relative binding free energy” value was 0.01 kcal/mol.
In the case of AGTGTCACGTGGGTGG, the “relative binding free energy” value is reported as -0.06 kcal/mol.
With AAGGGCACGTGTAGGC the “relative binding free energy” value was -0.03 kcal/mol.
In the case of TCGGACACGTGGTTTT, the “relative binding free energy” value is reported as 0.01 kcal/mol.
For GGGGACACGTGTTGGA, the “relative binding free energy” value was -0.01 kcal/mol.
GCGTTCACGTGGAGGG was tested, and the “relative binding free energy” value was 0.24 kcal/mol.
With CATCGCACGTGTAGGG the “relative binding free energy” value was 0.15 kcal/mol.
CTGTTCACGTGATTAG was tested, and the “relative binding free energy” value was 0.18 kcal/mol.
In the case of GGGAGCACGTGGTGGG, the “relative binding free energy” value is reported as -0.16 kcal/mol.
In the case of GATTGCACGTGGAGGG, the “relative binding free energy” value is reported as 0.05 kcal/mol.
